In all, about 150,000 compounds went through this assay and about 540 (0.36%) showed an effect of 50% or more. The list shows a part of the results.

For the experiment, the system named is Plasmodium falciparum. Kind of experiment: Primary screen in NF54 nanoGlo assay, in single point, at 2uM, 72h; a lower Z score goes with more inhibition. It is filed as functional, Erythrocyte. The following applies: timepoint 72 hour.
For `Cc1nc(C)c(C(=O)NC[C@@H](CO)Cc2cccs2)s1`, the “% Inhibition” value is given as -1% and the Z score was found to be 0.15.

Consider `O=C(Cn1cnc2ccccc21)N1CCC[C@H](Nc2ccc3c(c2)OCCO3)C1`, for which the “% Inhibition” value is given as -8% and the Z score is on record as 0.75.

For `C[C@@H](CN1CCOCC1)N(C)S(=O)(=O)c1cccc2cccnc12`, the “% Inhibition” value came to 3% and the Z score is given as -0.42.

With `C[C@@H]1Oc2ccc(NC(=O)c3cccs3)cc2CN(CCc2ccc(F)cc2)C1=O`, the “% Inhibition” value stood at 2% and the Z score is given as -0.23.

Take `O=C([C@@H]1COc2ccc(Br)cc21)N(CC1CC1)c1cccnc1`: the “% Inhibition” value is recorded as 1% and the Z score is -0.08.

As for `Cc1cc(F)ccc1NC(=O)C(=O)NCc1nc(C2CC2)no1`, the “% Inhibition” value is recorded as -3% and the Z score was 0.65.

As to `Fc1cccc(F)c1[C@H]1CCN(Cc2ncccn2)C1`, the “% Inhibition” value is on record as -1% and the Z score worked out at 0.11.

Regarding `O=C(Nc1ccccc1CN1CCc2ccccc21)NC1CCC(O)CC1` (configuration not stated), the “% Inhibition” value stood at 35% and the Z score was -5.07.

`COc1ccc(CC(=O)N2CCC(=C3CCC3)CC2)cc1OC`: the “% Inhibition” value is on record as -11% and the Z score is 1.72.

In the case of `Cc1ccc2ncc(C(=O)N(CC(F)(F)F)C3CCC3)c(=O)n2c1`, the “% Inhibition” value was 0% and the Z score was 0.06.

As for `CCn1cc([C@H]2OCC[C@@H]2NC(=O)c2nccc3occc23)cn1`, the “% Inhibition” value was -3% and the Z score worked out at 0.4.

Turning to `COCCn1ncc(N2CC[C@H](C(=O)NCC3CCN(Cc4cccc(C)c4)CC3)C2)cc1=O`, the “% Inhibition” value is -8% and the Z score is recorded as 1.6.

As for `CCCC[C@H]1CN(c2cccc(-c3ccccc3)c2)C(=O)CN1C(=O)CNC(N)=O`, the “% Inhibition” value is given as 3% and the Z score is -0.44.

With `C#CCNC(=O)[C@H](C)Oc1cc(Br)cc(F)c1F`, the “% Inhibition” value turned out to be 2% and the Z score is recorded as -0.25.

As to `CC(=O)N1CCN(c2nc(C)nc3c2cnn3-c2cccc(C)c2)CC1`, the “% Inhibition” value is recorded as 1% and the Z score is -0.18.

For `Cc1ccc(NC(=O)N2CCN(C3=Nc4ccc(C(F)(F)F)cc4Oc4ccccc43)C[C@@H]2C)cc1`, the “% Inhibition” value was determined as 1% and the Z score was -0.07.

Regarding `Cn1c(C(F)(F)F)nn(CC(=O)Nc2cccc(Cl)c2Cl)c1=O`, the “% Inhibition” value is listed as -10% and the Z score was 1.2.

Regarding `COc1cccc(C(=O)N2CCc3ncncc3C2)c1OC`, the “% Inhibition” value is listed as -9% and the Z score is listed as 1.65.

With `Cc1c(-c2noc(C(=O)N3CCCCCC3)n2)oc2ccccc12`, the “% Inhibition” value is reported as -17% and the Z score was 2.05.

Turning to `O=C(NCCN1CCCC[C@@H]1CO)c1cn(Cc2ccc(Cl)cc2)nn1`, the “% Inhibition” value is 11% and the Z score is given as -1.43.

In the case of `O=C1[C@@H]2CCCN2C(=O)N1C1CCN(Cc2ccccn2)CC1`, the “% Inhibition” value was -7% and the Z score is listed as 1.44.

`O=C(C1CC2C=CC1C2)N1CCC(c2nc3ccccc3s2)CC1` (configuration not stated): the “% Inhibition” value is -15% and the Z score was determined as 2.05.

With `COC[C@H]1CCCN1C(=O)C[C@@H]1CCN2C[C@@H]1CCCOc1ccc(N(C)CCc3ccccn3)cc1CNCC2=O`, the “% Inhibition” value came to 14% and the Z score was -1.63.

Regarding `CCc1nc(CCN[C@H]2CCN(CC(F)(F)F)C2)sc1C`, the “% Inhibition” value is on record as -5% and the Z score stood at 0.7.

In the case of `CC(NC1CCS(=O)(=O)C1)c1cccc(OCc2ccccc2)c1` (configuration not stated), the “% Inhibition” value is 2% and the Z score was -0.39.

Turning to `O=C(NCc1ccc2c(c1)OCO2)c1nnc(-c2ccncc2)o1`, the “% Inhibition” value is on record as -2% and the Z score stood at 0.28.

Take `O=C(Cn1ccc(=O)cc1)N1CCN(Cc2ccccc2)C(=O)C1`: the “% Inhibition” value is -11% and the Z score came out at 1.49.

As for `CN(CCC(C)(C)O)Cc1ccc(C#CCO)s1`, the “% Inhibition” value is recorded as -1% and the Z score is on record as 0.14.

For the compound `CCCNC(=O)c1ccc(-c2cc(Cl)c3c(c2)C[C@H](CN)O3)s1`, the “% Inhibition” value is -6% and the Z score stood at 0.82.

With `CS(=O)(=O)c1cccc(OCCN2CCC[C@H]2c2ccc[nH]2)c1`, the “% Inhibition” value is recorded as -4% and the Z score is 0.57.

As to `COc1cccc(N2CCN(C3CCN(Cc4cccs4)CC3)CC2)c1`, the “% Inhibition” value was -1% and the Z score came out at 0.12.

As to `Cc1nc(CCC(=O)N2CCN(c3ccc(Cl)c(Cl)c3)CC2)n[nH]1`, the “% Inhibition” value was found to be 3% and the Z score is -0.42.

In the case of `C[C@H](NCCc1nccn1Cc1ccccc1)c1cccc(O)c1`, the “% Inhibition” value is -4% and the Z score is 0.61.

In the case of `CCC[C@H]1CN(C(=O)c2n[nH]c3ccc(OC)cc23)C[C@@H]1NC(C)=O`, the “% Inhibition” value is listed as -4% and the Z score stood at 0.8.

Consider `CCOc1ccccc1C(=O)NCC(=O)NC[C@H]1CC2c3ccccc3C1c1ccccc12`, for which the “% Inhibition” value came out at 0% and the Z score is -0.02.

Regarding `CC(=O)N1CCCN(c2nc3c(s2)c(C)nn3-c2ccc(C)cc2)CC1`, the “% Inhibition” value is 4% and the Z score is -0.71.

Consider `OCc1csc(N2CCC[C@@](CO)(CCc3ccccc3)C2)n1`, for which the “% Inhibition” value is recorded as -1% and the Z score stood at 0.23.

Regarding `O=C(NCCc1ccccc1C(F)(F)F)c1cc(CN2CCC[C@H](O)C2)on1`, the “% Inhibition” value is on record as -6% and the Z score stood at 1.18.

As to `CC1Cc2ccccc2N1C(=O)C1CCCN(C(N)=O)C1` (configuration not stated), the “% Inhibition” value was -14% and the Z score is 2.31.

In the case of `COCC[C@](C)(O)CNC(=O)c1snnc1C`, the “% Inhibition” value came out at 8% and the Z score is recorded as -0.9.

For `COc1ccc(CNc2cccc(C(=O)NC3CC3)c2)c(OC)c1`, the “% Inhibition” value is -4% and the Z score worked out at 0.4.
